The shares of active, inactive and inconclusive entries below differ from those in the screen. For part of these data: Potencies beside an inconclusive call are fits to weak or partial responses and may not hold up. Activity calls are given as the source filed them. Unless noted, the call rests on the fitted dose curve; in most records, active means well fitted curve in the direction sought with a large enough effect; inconclusive means small, poorly fitted or top-dose-only effect, or another doubt; inactive means no such curve, though single readings can be large; an effect the other way counts as inactive or inconclusive.
System: not listed separately
Assay: NFAT Signaling Pathway (AID 444; active means well fitted curve in either direction with a large enough effect, not every such curve was filed as active; inconclusive means small, poorly fitted or top-dose-only effect, or another doubt;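 further: carbachol stimulus at about its EC50 of 1 µM final; on the % scale 0 is the no-effect control and ±100 the full control effect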)
Settings: Jurkat NFAT-bla M1, carbachol, beta-lactamase ratio, 5 h; at 7.69 µM (top of the series) unless noted
How it was run: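 Read-out: CCF4 FRET ratio (460 nm/530 nm) after 1 h RT dye loading, used for %activity and AC50 from titration series. Cells: Jurkat NFAT-β-lactamase/M1 line, treated with compound plus 1 uM carbachol for 5 h, 37 °C.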
Tags describe the fitted curve by direction and shape or compound fluorescence and quenching.

Compound | activity change, negative = inhibition
N#CC(C#N)=Cc1ccc([N+](=O)[O-])c(O)c1 | inconclusive: -46.7% [inhibitor] [at 38 µM]
O=C(OC1CCN(CCCl)CC1)C(c1ccccc1)c1ccccc1 | inconclusive: -57% [inhibitor] [at 38 µM]
COc1ccc(-n2nc(C(F)(F)F)cc2-c2ccc(Cl)cc2)cc1 | active: -91.5% [at 38 µM]

System: not listed separately
Assay: qHTS Assay for Identification of Small Molecule Antagonists for NFkB Signaling Pathway (AID 895; active means well fitted inhibition curve with a large enough effect in the signal ratio, with a control signal flat, not every such curve was filed as active; inconclusive means small, poorly fitted or top-dose-only effect, or effect the other way, or a change in a side signal; the % refers to the signal ratio; further: potency means the concentration at half of the fitted maximal effect; on activity change, negative = inhibition: on the % scale 0 is the no-effect control and ±100 the full control effect)
Settings: NFkB beta-lactamase reporter cells, FRET ratio 460/530; activity change, negative = inhibition: at 38.3 µM (top of the series) unless noted
How it was run: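 Beta-lactamase reporter read-out (460 and 530 nm emission ratio, 405 nm excitation, 2 hrs substrate loading RT) after 5 hr stimulation with 10 pM TNF alpha in compound-treated NFkB-bla ME-180 cells in low-serum medium.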

Compound | activity change, negative = inhibition | Potency
N#CC(C#N)=Cc1ccc([N+](=O)[O-])c(O)c1 | inactive: 9% | –
C[C@H]1OC[C@@H](C[N+](C)(C)C)O1 | inconclusive: -32.7% [at 38.3 µM, stimulated with 10 pM TNF alpha] | –
O=C(OC1CCN(CCCl)CC1)C(c1ccccc1)c1ccccc1 | – | active: 2.51 µM
COc1ccc(-n2nc(C(F)(F)F)cc2-c2ccc(Cl)cc2)cc1 | inactive: -13.4% | –

System: not listed separately
Assay: qHTS Assay for Identification of Small Molecule Agonists for Thrombopoietin (TPO) Signaling Pathway (AID 917); further: potency means the concentration at half of the fitted maximal effect; on activity, positive = activation: on the % scale 0 is the no-effect control and ±100 the full control effect
Settings: TPO signaling pathway reporter cells, agonist qHTS; series mostly up to 38.5 µM; activity, positive = activation: at the top concentration
How it was run: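 Ba/F3 (mouse) + hTPO receptor + GpIIb-promoter luciferase; IL-3 withdrawn overnight; compound + 26 pM TPO (EC50), 24 hrs, 37 C, 5% CO2; Steadylite luminescence, 10 min RT.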

Compound | activity, positive = activation | Potency
C[C@H]1OC[C@@H](C[N+](C)(C)C)O1 | inactive: 0.44% [at 38.5 µM, stimulated with TPO at its EC50] | –
O=C(OC1CCN(CCCl)CC1)C(c1ccccc1)c1ccccc1 | – | inconclusive: 12.6 µM [inhibitor, partial curve]
COc1ccc(-n2nc(C(F)(F)F)cc2-c2ccc(Cl)cc2)cc1 | – | inconclusive: 5.01 µM [inhibitor, partial curve]

Target: Muscarinic acetylcholine receptor M1 (Rattus norvegicus) (UniProt P08482)
Assay: qHTS Assay for Antagonists of Acetylcholine Muscarinic M1 Receptor: Measurement of IP-One Response (AID 944); further: nearly all actives have a fitted effect of over 75% in size; further: potency means the concentration at half of the fitted maximal effect
Settings: CHO-M1 cells, IP-One HTRF, antagonist mode; series mostly up to 46.1 µM; activity change, negative = inhibition: at the top concentration

Sequence of UniProt P08482 (P08482 whole entry, looked up): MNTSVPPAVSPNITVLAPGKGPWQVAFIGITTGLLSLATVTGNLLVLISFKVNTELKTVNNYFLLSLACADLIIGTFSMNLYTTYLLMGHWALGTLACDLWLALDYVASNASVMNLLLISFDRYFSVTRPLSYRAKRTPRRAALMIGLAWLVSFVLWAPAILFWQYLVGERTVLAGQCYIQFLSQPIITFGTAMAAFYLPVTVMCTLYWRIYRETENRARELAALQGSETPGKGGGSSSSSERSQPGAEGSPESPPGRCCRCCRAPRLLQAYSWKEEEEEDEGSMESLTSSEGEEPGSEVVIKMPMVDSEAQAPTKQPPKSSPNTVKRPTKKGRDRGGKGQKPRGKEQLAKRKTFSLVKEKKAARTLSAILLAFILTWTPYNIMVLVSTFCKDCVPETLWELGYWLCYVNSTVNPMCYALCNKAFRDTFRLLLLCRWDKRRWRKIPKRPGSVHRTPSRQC

Compound | activity change, negative = inhibition | Potency
C[C@H]1OC[C@@H](C[N+](C)(C)C)O1 | inactive: 35.6% | –
O=C(OC1CCN(CCCl)CC1)C(c1ccccc1)c1ccccc1 | – | active: 0.562 µM
COc1ccc(-n2nc(C(F)(F)F)cc2-c2ccc(Cl)cc2)cc1 | – | inconclusive: 17.8 µM [inhibitor, partial curve, poor fit]

System: not listed separately
Assay: Validation of Assay for Modulators of Lamin A Splicing (AID 1459; active means well fitted curve in the direction sought with a large enough effect in the signal ratio; inconclusive means small, poorly fitted or top-dose-only effect, or effect the other way, or a change in a side signal; inactive means no such curve, though single readings can be large or run the other way; the % refers to the signal ratio; further: potency means the concentration at half of the fitted maximal effect;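 on ratio change, both ways: cells exposed to compound for two days before reading; 0% is about no effect; ratio rise marks activators and ratio drop marks inhibitors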)
Settings: Lamin A splicing dual RFP/GFP fluorescence reporter; Potency: ratio unless noted; ratio change, both ways: at 9.22 µM unless noted
How it was run: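 Readout: ratio of GFP (500-530 nm) to RFP (575-640 nm) total object intensity by 488 nm laser-scanning cytometry after 48 hrs. Cells were HeLa S3 clones carrying lamin A-EGFP minigene plus DsRed2 viability reporter; vehicle 0.5% DMSO final.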

Compound | ratio change, both ways | Potency
C[C@]12CC[C@H](O)CC1=CCC1C2CC[C@]2(C)C(=O)CC[C@@H]12 (stereo partly specified) | inconclusive: 13.2% | –
N#CC(C#N)=Cc1ccc([N+](=O)[O-])c(O)c1 | inconclusive: 40.8% [at 46.1 µM] | –
C[C@H]1OC[C@@H](C[N+](C)(C)C)O1 | inactive: 7.08% | –
CCN1C[C@]2(C)CC[C@H](O)[C@@]34[C@@H]5C[C@@H]6[C@@H](OC)C[C@@](O)(C5[C@H]6O)[C@@H](C[C@@H]23)[C@@H]14 | inactive: -6.09% | –
O=C(OC1CCN(CCCl)CC1)C(c1ccccc1)c1ccccc1 | inconclusive: -13.5% | –
COC(=O)C(N)CCCN=C(N)N[N+](=O)[O-] (stereo unspecified) | inactive: -10.3% | –
C[C@@H]1O[C@@H](O[C@H]2C[C@@H](O)[C@]3(CO)[C@@H]4C(CC[C@]3(O)C2)[C@@]2(O)CC[C@H](C3=CC(=O)OC3)[C@@]2(C)C[C@H]4O)[C@H](O)[C@H](O)[C@H]1O (stereo partly specified) | – | inconclusive: 1.12 µM [inhibitor, full curve]
COc1ccc(-n2nc(C(F)(F)F)cc2-c2ccc(Cl)cc2)cc1 | inconclusive: -10.2% | –
